# Measurements published in PubChem BioAssay (NCATS).
# The shares of active, inactive and inconclusive entries below differ from those in the screen. For some assays here: No potency is given beside an inconclusive call; the fits are too rough. Active and inactive are the calls of the source. The call rests on the fitted dose curve; in most records, active means well fitted curve in the direction sought with a large enough effect; inconclusive means small, poorly fitted or top-dose-only effect, or another doubt; inactive means no such curve, though single readings can be large; an effect the other way counts as inactive or inconclusive.
# Legend:
# [1] = biological target: Rap guanine nucleotide exchange factor 3 (Homo sapiens) (UniProt O95398); test: Confirmatory qHTS for antagonist of cAMP-regulated guanine nucleotide exchange factor 3 (EPAC1) (AID 1645880); details: EPAC1 Rap1B-BODIPY-GDP exchange, fluorescence; activity, negative = inhibition: at 115 µM (top of the series); further: nearly all actives have a fitted effect of over 55% in size; further: potency means the concentration at half of the fitted maximal effect;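 on activity, negative = inhibition: plate controls were DMSO only for no effect and full effect of the ATA control for full effect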
# Method in brief: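 Released BODIPY-GDP fluoresces less than Rap1-bound BODIPY-GDP; the signal is followed at 480/540 nm at 5-min intervals over 30 min, after 5 min at room temperature. Reactions contain 100 nM EPAC1, 250 nM RAP1B-BODIPY-GDP and 50 uM GDP; results are normalized to ATA and DMSO.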
# [2] = biological target: Rap guanine nucleotide exchange factor 3 (Homo sapiens) (UniProt O95398); test: Confirmatory qHTS for agonist of cAMP-regulated guanine nucleotide exchange factor 3 (EPAC1) (AID 1645881); details: EPAC1 Rap1B BODIPY-GDP exchange fluorescence; activation: at 154 µM (top of the series), 100% = cAMP control response; further: nearly all actives have a fitted effect of over 75% in size; further: potency means the concentration at half of the fitted maximal effect;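 on activation: EPAC1 catalysed release of BODIPY-GDP from Rap1B seen as fluorescence loss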
# [3] = biological target: Rap guanine nucleotide exchange factor 4 (Homo sapiens) (UniProt Q8WZA2); test: Confirmatory qHTS for agonist of cAMP-regulated guanine nucleotide exchange factor 4 (EPAC2) (AID 1645884); details: EPAC2 GEF activity, Rap1B-BODIPY-GDP fluorescence; activation: at 154 µM (top of the series), percent relative to cAMP agonist control;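 further: nucleotide exchange releases bodipy-GDP from Rap1 and this lowers its fluorescence; nearly all actives have a fitted effect of over 65% in size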; further: potency means the concentration at half of the fitted maximal effect; on activation: on the % scale 0 is the no-effect control and ±100 the full control effect
# [4] = biological target: Rap guanine nucleotide exchange factor 3 (Homo sapiens) (UniProt O95398); test: Counterscreen qHTS for agonist of cAMP-regulated guanine nucleotide exchange factor 3 (EPAC1) (AID 1645889); details: EPAC1 Rap1B-BODIPY-GDP exchange, fluorescence; activation: at 154 µM (top of the series) unless noted; further: nearly all actives have a fitted effect of over 40% in size; further: potency means the concentration at half of the fitted maximal effect; on activation: % of control where 0% means no effect
# Method in brief: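 Rap1B–BODIPY-GDP (250 nM) with 50 uM GDP; compounds pin-transferred to 9.74 nM–152 uM final (activator) or from 7.32 nM upwards (inhibitor). Fluorescence Ex/Em 480/540 nm read at 5 and 30 min, then after adding cAMP or buffer, at room temperature.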
# [5] = biological target: DNA repair nuclease/redox regulator APEX1 (Homo sapiens) (UniProt P27695); test: Confirmation qHTS Assay for Inhibitors of the Human Apurinic/apyrimidinic Endonuclease 1 (APE1) (AID 2572); details: purified APE1, fluorogenic abasic-site DNA cleavage; series mostly up to 57.1 µM; further: potency means the concentration at half of the fitted maximal effect; nearly all actives have a fitted effect of over 30% in size
# Method in brief: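 Cleavage of a tetrahydrofuran abasic site in a 50 nM (final) TAMRA/BHQ-2 duplex was tracked by rising fluorescence, measured in kinetic mode; reaction progress computed from the first-to-third read difference.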
# [6] = biological target: Rap guanine nucleotide exchange factor 4 (Homo sapiens) (UniProt Q8WZA2); test: Confirmatory qHTS for antagonist of cAMP-regulated guanine nucleotide exchange factor 4 (EPAC2) (AID 1645885); details: EPAC2 Rap1B-BODIPY-GDP exchange fluorescence, biochemical; activity change, negative = inhibition: at 12.7 µM (top of the series) unless noted; series mostly up to 114 µM; further: potency means the concentration at half of the fitted maximal effect; nearly all actives have a fitted effect of over 25% in size
# [7] = biological target: DNA polymerase iota (Homo sapiens) (UniProt Q9UNA4); test: qHTS for Inhibitors of Polymerase Iota: Confirmatory Assay for Cherry-picked Compounds (AID 720496); details: Pol iota primer extension, TAMRA/BHQ fluorescence; further: potency means the concentration at half of the fitted maximal effect
# Method in brief: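 Extension of a quenched TAMRA-reporter/BHQ-2-template DNA substrate (50 nM) by 10 nM Pol iota after 15 min compound preincubation. Strand-displacement fluorescence (525/598 nm) was read kinetically at 0 and 10 min. Buffer-only wells served as negative control.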
# [8] = biological target: RecQ-like DNA helicase BLM (Homo sapiens) (UniProt P54132); test: qHTS for Inhibitors of WRN Helicase: BLM Helicase Counterscreen for WRN Inhibitors (AID 720503); details: Recombinant BLM helicase DNA unwinding, red fluorescence; series mostly up to 57.1 µM;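 further: plate controls were DMSO vehicle for no effect and enzyme-free control wells for full effect; nearly all actives have a fitted effect of over 60% in size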
# Method in brief: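 Reactions were started with 100 nM DNA substrate and 2 mM ATP (final) after compound and 1 nM BLM stood 15 min at room temperature in Tris-HCl pH 8.0 buffer with NaCl, MgCl2, DTT and Tween-20. Two red-fluorescence reads 15 min apart were normalized against DMSO and no-enzyme wells.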
# [9] = biological target: Cytochrome P450 3A4 (Homo sapiens) (UniProt P08684); test: qHTS Assay for Inhibitors and Substrates of Cytochrome P450 3A4 (AID 884); details: recombinant CYP3A4, Luciferin-PPXE luminescence; activity change, negative = inhibition: at 57.1 µM (top of the series); further: potency means the concentration at half of the fitted maximal effect; nearly all actives have a fitted effect of over 50% in size
# Method in brief: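 Luminescent readout of luciferin produced by CYP3A4 (20 nM) dealkylation of Luciferin-PPXE, 25 uM (its KM). NADPH-driven reaction ran 60 min at RT after 10 min compound preincubation; data scaled to 57 uM ketoconazole as 100% inhibition.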
# [10] = biological target: Ubiquitin carboxyl-terminal hydrolase 1 (Homo sapiens) (UniProt O94782); test: Inhibitors of USP1/UAF1: Pilot qHTS (AID 504865); details: purified USP1/UAF1, Ub-rhodamine cleavage fluorescence; series mostly up to 54.9 µM;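 further: rhodamine fluorescence freed from ubiquitin-rhodamine substrate followed over time; potency means the concentration at half of the fitted maximal effect; nearly all actives have a fitted effect of over 35% in size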
# Method in brief: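 Deubiquitinase activity followed as kinetic rhodamine fluorescence release from 150 nM Ub-Rho. 1 nM USP1/UAF1 with compound, after 15 min room-temperature preincubation, in HEPES pH 7.8 buffer containing TCEP, EDTA, BSA and Tween-20.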
# [11] = biological target: DNA polymerase kappa (Homo sapiens) (UniProt Q9UBT6); test: qHTS for Inhibitors of Polymerase Kappa: Confirmatory Assay for Cherry-picked Compounds (AID 720501); details: purified Pol-kappa, fluorescent strand-displacement substrate; further: potency means the concentration at half of the fitted maximal effect
# Method in brief: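 10 nM human Pol-kappa was preincubated with compound 15 min at room temperature, then 50 nM (final) primer/template substrate with TAMRA-labeled reporter strand and BHQ-2-labeled template added. Fluorescence (Ex 525, Em 598 nm) read at 0 and 10 min.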
# Tags describe the fitted curve by direction and shape.
# UniProt O95398, sequence (O95398 whole entry, looked up): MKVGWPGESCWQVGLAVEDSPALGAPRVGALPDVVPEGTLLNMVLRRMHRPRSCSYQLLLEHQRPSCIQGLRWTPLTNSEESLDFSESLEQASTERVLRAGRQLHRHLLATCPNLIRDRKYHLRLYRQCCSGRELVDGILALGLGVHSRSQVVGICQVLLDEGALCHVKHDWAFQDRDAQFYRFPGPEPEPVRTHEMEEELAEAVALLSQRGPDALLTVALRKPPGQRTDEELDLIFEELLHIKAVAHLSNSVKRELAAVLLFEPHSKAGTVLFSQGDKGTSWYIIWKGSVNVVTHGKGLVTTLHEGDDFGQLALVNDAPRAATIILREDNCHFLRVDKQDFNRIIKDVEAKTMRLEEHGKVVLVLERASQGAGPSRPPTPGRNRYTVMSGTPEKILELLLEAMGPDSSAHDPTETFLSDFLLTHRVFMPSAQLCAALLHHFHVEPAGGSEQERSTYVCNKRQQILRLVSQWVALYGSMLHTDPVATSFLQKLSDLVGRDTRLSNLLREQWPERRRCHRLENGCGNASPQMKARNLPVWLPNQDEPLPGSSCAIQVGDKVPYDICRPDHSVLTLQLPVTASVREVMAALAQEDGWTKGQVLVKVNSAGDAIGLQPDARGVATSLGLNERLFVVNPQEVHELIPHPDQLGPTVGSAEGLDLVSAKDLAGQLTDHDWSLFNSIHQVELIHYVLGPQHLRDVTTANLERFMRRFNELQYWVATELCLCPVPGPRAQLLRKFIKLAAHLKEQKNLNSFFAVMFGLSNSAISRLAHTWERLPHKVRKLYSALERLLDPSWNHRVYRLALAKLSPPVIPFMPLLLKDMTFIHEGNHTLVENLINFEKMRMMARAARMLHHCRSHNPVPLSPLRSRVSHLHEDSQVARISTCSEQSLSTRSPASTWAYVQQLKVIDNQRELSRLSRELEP
# UniProt Q8WZA2, sequence (Q8WZA2 whole entry, looked up): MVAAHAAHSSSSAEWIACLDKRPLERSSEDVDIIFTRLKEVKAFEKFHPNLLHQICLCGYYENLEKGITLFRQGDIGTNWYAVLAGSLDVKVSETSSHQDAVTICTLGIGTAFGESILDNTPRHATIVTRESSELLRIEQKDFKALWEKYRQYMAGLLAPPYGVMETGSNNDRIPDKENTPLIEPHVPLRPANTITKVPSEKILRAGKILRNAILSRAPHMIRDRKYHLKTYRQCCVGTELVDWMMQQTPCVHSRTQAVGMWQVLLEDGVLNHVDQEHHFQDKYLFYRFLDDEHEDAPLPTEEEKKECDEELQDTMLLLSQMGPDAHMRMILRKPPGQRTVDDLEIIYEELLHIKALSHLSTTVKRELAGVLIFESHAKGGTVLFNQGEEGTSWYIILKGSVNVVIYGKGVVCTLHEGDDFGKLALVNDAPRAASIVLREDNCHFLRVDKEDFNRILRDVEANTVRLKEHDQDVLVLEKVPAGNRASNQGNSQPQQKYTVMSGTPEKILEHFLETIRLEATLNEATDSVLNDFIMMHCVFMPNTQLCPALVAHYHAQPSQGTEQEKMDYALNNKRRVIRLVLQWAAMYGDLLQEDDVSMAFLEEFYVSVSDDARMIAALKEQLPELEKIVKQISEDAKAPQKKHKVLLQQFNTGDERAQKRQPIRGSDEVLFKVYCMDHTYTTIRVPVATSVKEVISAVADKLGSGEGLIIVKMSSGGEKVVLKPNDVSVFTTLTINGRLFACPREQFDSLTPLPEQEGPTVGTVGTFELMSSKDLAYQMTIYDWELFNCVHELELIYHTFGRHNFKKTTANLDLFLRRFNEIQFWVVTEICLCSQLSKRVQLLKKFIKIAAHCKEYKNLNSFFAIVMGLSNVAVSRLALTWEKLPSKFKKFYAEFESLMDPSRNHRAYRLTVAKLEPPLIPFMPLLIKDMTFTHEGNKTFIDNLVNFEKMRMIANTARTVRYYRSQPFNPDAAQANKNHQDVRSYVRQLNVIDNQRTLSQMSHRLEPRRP
# UniProt P27695, sequence (P27695 whole entry, looked up): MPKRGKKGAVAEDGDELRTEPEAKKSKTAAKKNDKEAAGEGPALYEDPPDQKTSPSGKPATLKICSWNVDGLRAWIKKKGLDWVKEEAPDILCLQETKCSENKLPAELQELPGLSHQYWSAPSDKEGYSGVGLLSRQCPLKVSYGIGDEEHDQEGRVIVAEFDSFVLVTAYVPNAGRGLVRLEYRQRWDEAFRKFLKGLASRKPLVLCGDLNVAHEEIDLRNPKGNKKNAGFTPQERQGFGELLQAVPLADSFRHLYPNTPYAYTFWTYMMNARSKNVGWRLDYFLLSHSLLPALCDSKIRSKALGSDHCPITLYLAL
# UniProt P08684, sequence (P08684 whole entry, looked up): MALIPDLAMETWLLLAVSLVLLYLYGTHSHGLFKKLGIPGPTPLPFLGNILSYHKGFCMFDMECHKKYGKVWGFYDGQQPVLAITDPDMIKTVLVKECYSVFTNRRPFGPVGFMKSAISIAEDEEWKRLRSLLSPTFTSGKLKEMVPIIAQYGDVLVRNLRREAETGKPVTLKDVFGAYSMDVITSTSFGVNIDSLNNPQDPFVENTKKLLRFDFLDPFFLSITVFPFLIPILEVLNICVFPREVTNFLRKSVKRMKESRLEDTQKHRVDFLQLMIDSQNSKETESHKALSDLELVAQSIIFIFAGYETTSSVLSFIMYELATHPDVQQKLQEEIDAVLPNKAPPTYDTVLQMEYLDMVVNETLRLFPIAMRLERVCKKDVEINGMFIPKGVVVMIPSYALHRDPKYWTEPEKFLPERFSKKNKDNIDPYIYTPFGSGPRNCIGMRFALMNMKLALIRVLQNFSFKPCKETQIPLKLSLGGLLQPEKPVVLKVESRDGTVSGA
# UniProt O94782, sequence (O94782 whole entry, looked up): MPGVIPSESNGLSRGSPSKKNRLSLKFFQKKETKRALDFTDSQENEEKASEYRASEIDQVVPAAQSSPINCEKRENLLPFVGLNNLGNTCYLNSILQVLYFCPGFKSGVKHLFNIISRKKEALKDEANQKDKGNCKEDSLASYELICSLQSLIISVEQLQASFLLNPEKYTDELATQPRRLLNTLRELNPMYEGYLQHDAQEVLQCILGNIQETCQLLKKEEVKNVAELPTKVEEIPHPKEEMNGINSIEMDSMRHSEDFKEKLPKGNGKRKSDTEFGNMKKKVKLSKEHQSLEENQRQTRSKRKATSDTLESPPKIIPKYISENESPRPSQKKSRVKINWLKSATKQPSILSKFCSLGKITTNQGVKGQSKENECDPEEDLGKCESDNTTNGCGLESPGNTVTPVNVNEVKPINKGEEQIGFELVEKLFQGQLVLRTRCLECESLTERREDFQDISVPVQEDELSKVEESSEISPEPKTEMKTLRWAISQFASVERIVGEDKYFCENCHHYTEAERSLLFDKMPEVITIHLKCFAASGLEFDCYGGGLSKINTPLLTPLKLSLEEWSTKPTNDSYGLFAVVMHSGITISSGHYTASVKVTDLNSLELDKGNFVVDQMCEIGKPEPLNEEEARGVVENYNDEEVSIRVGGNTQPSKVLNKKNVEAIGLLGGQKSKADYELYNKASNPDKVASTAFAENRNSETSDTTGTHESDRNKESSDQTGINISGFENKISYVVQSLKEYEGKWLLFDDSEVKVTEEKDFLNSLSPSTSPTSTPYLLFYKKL
# UniProt Q9UBT6, sequence (Q9UBT6 whole entry, looked up): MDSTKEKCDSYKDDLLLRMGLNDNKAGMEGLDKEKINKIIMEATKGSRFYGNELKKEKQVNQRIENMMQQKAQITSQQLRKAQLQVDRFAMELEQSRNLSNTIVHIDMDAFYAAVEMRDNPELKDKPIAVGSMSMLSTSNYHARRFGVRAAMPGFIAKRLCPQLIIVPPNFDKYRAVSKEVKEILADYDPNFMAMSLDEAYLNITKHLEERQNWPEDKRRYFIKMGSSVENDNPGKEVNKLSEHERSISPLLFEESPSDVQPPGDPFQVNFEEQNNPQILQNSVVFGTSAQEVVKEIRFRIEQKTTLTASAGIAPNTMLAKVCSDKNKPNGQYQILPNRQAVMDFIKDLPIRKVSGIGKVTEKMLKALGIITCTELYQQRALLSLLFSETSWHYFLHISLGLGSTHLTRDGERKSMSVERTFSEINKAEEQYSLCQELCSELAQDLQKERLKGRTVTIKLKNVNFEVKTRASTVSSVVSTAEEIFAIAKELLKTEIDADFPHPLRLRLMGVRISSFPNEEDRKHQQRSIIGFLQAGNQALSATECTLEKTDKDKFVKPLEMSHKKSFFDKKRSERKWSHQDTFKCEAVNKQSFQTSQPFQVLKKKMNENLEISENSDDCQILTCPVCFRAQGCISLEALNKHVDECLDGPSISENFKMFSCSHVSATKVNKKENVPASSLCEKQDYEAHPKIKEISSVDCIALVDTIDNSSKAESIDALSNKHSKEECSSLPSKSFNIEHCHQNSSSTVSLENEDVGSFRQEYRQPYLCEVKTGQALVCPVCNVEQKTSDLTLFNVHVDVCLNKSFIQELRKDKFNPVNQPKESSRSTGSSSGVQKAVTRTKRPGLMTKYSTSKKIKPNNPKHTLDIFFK
compound,measurement,setting,value
CCN1C(=O)/C(=C/C=C2/SCCN2C)SC1=S,Potency,[1],inactive
same,Potency,[2],active: 79.4 µM
same,activation,[3],"inactive: 20% [at 17.1 µM, percent relative to cAMP agonist control]"
same,Potency,[4],active: 11.2 µM
N=C1/C(=C\c2ccc(-c3cccc(C(=O)O)c3)o2)C(=O)N=C2SC=C(c3ccccc3)N12,Potency,[5],active: 39.8 µM
same,Potency,[1],"inconclusive [inhibitor, partial curve]"
same,Potency,[2],"inconclusive [activator, partial curve, poor fit]"
same,Potency,[3],active: 100 µM
same,Potency,[6],"inconclusive [inhibitor, single point]"
COc1ccc(O)c(C(c2c(C)[nH][nH]c2=O)c2c(C)[nH][nH]c2=O)c1,Potency,[7],"inconclusive [inhibitor, single point]"
same,Potency,[1],"inconclusive [inhibitor, partial curve]"
same,Potency,[2],"inconclusive [activator, partial curve, poor fit]"
same,Potency,[3],"inconclusive [activator, partial curve, poor fit]"
same,Potency,[6],active: 75.7 µM
same,activation,[4],inconclusive: 23% [activator]
COc1cccc(/C(O)=C/c2nc3ccc(C(=O)NCCc4ccc(Cl)cc4)cc3[nH]c2=O)c1,Potency,[1],inactive
same,Potency,[2],"inconclusive [activator, single point]"
same,Potency,[3],"inconclusive [activator, single point]"
same,Potency,[4],"inconclusive [activator, full curve, poor fit]"
CCn1c2ccccc2c2cc(NC(=O)c3ccc(=O)oc3)ccc21,Potency,[1],inactive
same,Potency,[2],active: 112 µM
same,Potency,[3],"inconclusive [activator, single point]"
same,Potency,[4],"inconclusive [activator, partial curve, poor fit]"
C#CCOCCOCCOCCNc1nc(N2CCN(C(=O)[C@H](Cc3cc4ccccc4[nH]3)n3cc([C@@H](N)Cc4ccc(O)cc4)nn3)CC2)nc(N2CCN(C(=O)[C@H](Cc3cc4ccccc4[nH]3)n3cc([C@@H](N)CC(C)C)nn3)CC2)n1,Potency,[1],active: 44.7 µM
same,Potency,[2],inactive
same,activation,[3],"inactive: -1.86% [at 17.1 µM, percent relative to cAMP agonist control]"
same,Potency,[4],"inconclusive [activator, partial curve, poor fit]"
Cc1cccc(N2C(=O)c3cccc4c(N(C)CCO)ccc(c34)C2=O)c1,Potency,[1],inactive
same,Potency,[2],active: 89.1 µM
same,Potency,[3],active: 100 µM
same,Potency,[4],active: 39.8 µM
CC[n+]1c(/C=C/C=C/N(C(C)=O)c2ccccc2)sc2ccccc21,Potency,[8],inactive
same,Potency,[1],active: 84.9 µM
same,Potency,[2],"inconclusive [activator, single point]"
same,Potency,[3],"inconclusive [activator, single point]"
same,Potency,[6],"inconclusive [inhibitor, single point]"
same,activation,[4],inconclusive: 58.3% [activator]
O=C(c1cc(Cl)ccc1Cl)N1CCc2ccccc21,Potency,[1],"inconclusive [inhibitor, partial curve, poor fit]"
same,Potency,[2],"inconclusive [activator, partial curve, poor fit]"
same,Potency,[3],"inconclusive [activator, partial curve, poor fit]"
same,activation,[4],inconclusive: 65.5% [activator]
Cc1c(S(=O)(=O)O)oc2c1C(=O)C(=O)c1c-2ccc2c1CCCC2(C)C,Potency,[9],active: 10 µM
same,Potency,[10],"inconclusive [inhibitor, partial curve, poor fit]"
same,Potency,[1],"inconclusive [inhibitor, partial curve]"
same,Potency,[2],"inconclusive [activator, partial curve, poor fit]"
same,Potency,[3],"inconclusive [activator, partial curve, poor fit]"
same,Potency,[6],"inconclusive [inhibitor, partial curve]"
CCOC(=O)c1ccc(/C=C2/C=C(c3ccccc3)N(c3ccc(Cl)c(C(=O)O)c3)C2=O)cc1,Potency,[11],"inconclusive [inhibitor, single point]"
same,Potency,[1],"inconclusive [inhibitor, full curve]"
same,Potency,[2],"inconclusive [activator, partial curve]"
same,Potency,[3],active: 100 µM
same,Potency,[6],"inconclusive [inhibitor, partial curve, poor fit]"
same,activation,[4],inconclusive: 61.3% [activator]
